From paper PMC6499814 come the findings set out here.

Sequences of proteins named here, by UniProt entry; tags and fusion partners are left off. Residues count along the entry.
UniProt Q9Y3D6: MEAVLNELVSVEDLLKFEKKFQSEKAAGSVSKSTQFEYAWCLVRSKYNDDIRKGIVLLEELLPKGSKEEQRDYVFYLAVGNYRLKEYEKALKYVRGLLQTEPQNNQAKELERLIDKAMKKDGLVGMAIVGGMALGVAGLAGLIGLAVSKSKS
UniProt O60313, residues 88-960: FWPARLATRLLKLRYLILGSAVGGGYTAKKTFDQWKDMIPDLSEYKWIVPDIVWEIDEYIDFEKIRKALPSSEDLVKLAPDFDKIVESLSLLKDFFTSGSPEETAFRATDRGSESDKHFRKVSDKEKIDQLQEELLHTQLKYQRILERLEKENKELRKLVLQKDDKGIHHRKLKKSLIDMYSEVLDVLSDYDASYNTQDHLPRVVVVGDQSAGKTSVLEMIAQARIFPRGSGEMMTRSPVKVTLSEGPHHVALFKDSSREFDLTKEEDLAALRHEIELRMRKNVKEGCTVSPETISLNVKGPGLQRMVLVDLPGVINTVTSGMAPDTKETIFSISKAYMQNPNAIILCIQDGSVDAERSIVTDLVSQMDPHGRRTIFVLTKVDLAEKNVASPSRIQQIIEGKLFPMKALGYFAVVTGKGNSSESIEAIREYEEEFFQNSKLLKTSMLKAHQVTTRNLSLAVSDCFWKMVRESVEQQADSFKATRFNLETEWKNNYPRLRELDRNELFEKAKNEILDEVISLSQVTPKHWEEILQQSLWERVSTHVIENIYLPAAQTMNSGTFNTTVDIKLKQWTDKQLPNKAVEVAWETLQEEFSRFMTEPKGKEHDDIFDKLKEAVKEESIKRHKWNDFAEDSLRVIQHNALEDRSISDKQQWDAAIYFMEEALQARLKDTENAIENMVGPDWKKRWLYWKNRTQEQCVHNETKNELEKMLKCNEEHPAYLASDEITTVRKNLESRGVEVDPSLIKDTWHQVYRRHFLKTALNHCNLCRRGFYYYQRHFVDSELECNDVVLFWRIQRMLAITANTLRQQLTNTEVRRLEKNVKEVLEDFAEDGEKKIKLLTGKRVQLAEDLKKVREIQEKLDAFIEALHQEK
UniProt P56962: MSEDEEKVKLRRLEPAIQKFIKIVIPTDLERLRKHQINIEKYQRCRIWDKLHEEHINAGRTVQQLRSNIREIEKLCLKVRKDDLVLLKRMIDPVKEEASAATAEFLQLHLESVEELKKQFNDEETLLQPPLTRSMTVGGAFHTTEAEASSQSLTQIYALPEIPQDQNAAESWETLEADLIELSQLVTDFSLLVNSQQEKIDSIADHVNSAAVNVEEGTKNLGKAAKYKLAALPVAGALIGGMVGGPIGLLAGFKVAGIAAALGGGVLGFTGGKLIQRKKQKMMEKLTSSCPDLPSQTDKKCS
UniProt Q6ZNE5: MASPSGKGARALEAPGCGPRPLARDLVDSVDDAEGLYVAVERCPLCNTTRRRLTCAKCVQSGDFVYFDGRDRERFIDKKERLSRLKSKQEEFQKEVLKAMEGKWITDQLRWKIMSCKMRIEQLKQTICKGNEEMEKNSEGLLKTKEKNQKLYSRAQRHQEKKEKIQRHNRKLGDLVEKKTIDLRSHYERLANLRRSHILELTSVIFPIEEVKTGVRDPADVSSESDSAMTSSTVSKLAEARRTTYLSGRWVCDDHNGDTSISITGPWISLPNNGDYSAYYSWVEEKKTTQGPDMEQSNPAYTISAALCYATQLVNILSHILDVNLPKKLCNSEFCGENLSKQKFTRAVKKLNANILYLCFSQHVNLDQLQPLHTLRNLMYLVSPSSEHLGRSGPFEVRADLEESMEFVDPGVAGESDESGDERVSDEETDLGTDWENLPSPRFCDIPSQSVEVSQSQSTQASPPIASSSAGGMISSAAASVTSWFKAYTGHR

Assay [1] addresses Flag-tagged Fis1 (mitochondrial fission 1 protein) (UniProt Q9Y3D6). Briefly: co-IP; HeLa cells transfected with Flag vector or Flag-Fis1; anti-Flag immunoprecipitates blotted for endogenous STX17 and Flag; NP-40 lysis buffer (50 mM Tris-HCl pH 7.4, 150 mM NaCl), FLAG M2 beads, 4 °C, 3 h.
The target is the same in assay [2]. Briefly: co-IP; HEK293T cells co-transfected with Myc-tagged STX17 (or truncations) and Flag-tagged plasmids for 24 h; IP with anti-Flag, blots with anti-Myc and anti-Flag; NP-40 lysis buffer, FLAG M2 beads, 4 °C, 3 h.
In assay [3] the target is T1, Flag-tagged Mff (mitochondrial fission factor) (UniProt Q9GZY8).
T1 sequence: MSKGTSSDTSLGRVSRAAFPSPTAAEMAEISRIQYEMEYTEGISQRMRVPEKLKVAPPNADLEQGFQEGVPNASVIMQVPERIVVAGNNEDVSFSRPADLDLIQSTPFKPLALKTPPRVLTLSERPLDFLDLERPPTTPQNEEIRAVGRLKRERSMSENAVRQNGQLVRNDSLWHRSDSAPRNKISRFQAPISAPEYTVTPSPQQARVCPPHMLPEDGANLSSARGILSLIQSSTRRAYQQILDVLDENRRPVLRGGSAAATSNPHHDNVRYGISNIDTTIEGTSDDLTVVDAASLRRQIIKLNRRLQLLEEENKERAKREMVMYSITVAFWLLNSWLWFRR
The assay is described as above.

Another assay has as its target T2, Flag-tagged Mfn1 (UniProt Q8IWA4).
T2 sequence: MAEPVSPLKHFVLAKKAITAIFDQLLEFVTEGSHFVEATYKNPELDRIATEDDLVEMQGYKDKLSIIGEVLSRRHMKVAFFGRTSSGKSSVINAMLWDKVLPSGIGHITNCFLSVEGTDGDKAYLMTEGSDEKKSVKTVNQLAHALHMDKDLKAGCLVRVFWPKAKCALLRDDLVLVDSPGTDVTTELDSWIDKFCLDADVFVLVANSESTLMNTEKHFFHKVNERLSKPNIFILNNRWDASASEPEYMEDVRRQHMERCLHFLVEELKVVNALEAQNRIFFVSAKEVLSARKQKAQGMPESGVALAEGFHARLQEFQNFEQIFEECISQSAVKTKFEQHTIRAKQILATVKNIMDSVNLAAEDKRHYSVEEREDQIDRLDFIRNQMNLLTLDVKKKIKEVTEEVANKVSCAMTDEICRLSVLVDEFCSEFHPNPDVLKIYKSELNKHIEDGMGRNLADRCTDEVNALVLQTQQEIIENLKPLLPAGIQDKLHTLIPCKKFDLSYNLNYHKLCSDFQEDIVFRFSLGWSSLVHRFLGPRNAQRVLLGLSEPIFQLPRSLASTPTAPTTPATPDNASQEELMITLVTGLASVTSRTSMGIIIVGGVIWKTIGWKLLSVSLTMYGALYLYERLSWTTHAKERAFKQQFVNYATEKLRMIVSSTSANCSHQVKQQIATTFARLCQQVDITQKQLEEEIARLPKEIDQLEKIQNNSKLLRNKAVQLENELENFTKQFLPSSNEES
The description is as above.

Another assay has as its target Flag-tagged OPA1 (UniProt O60313). Described as above.
The target of assay [4] is Flag-tagged STX17 (syntaxin 17) (UniProt P56962). Briefly: co-IP; Wild-type or Fis1 KO HeLa cells transfected with Flag-STX17 (or its mutants) and the indicated plasmids for 24 h; IP with anti-Flag beads and immunoblotting; also in cells cultured in glucose or galactose medium for 18 h.

These are yes or no findings as the source states them, for the method shown. Binding seen in cells or lysates may run through a third protein. Some results given as binding are weak or reduced against the parent protein; the word gives no strength. For part of these data: Tags and fused reporters may be left off the sequences shown.

As to “Syntaxin 17 (STX17), endogenous (from UniProt P56962 1-302)”, the binding entry in assay [1] is on record as “binds”.
Regarding “Myc-tagged STX17 (syntaxin 17) (from UniProt P56962 1-302)”, the binding entry in assay [2] was “binds”; in assay [3] it was “no binding”; with Flag-tagged Mfn1, “no binding”; with Flag-tagged OPA1, “no binding”.
On to ATG14 (from UniProt Q6ZNE5 1-492), for which the binding result in assay [4] is recorded as “binds”.
